We go through 5 compounds from US10292989B2, “General anesthetics that are not neurotoxic” (University of Virginia Patent Foundation, priority 2014, dated 2019).

For series [1], the target named is T1, T-channels in rat DRG neurons (Rattus norvegicus, UniProt Q9EQ60).
T1 construct: endogenous in cells; host or cells: acutely dissociated rat DRG neurons
As to conditions: cited from earlier work.

Series [2] has as its target recombinant Cav2.3 currents (Homo sapiens, UniProt Q15878). As to conditions: read-out: IC50, recombinant Cav2.3 currents; cited from earlier work.
In series [3] the test system is voltage-gated Na+, K+, N- and L-type HVA Ca2+ channels, glutamate and GABA-gated channels. As to conditions: cited from earlier work.
Series [4] relates to postsynaptic T-channels in DH neurons. The series is described as follows: Current-clamp recording from lamina I-II DH neurons in spinal cord slices. In kind it is cell-based. As to conditions: 1 μM. The protocol: a. […] We began by studying the role of postsynaptic T-channels in DH neurons using current-clamp recording from unidentified lamina I-II DH neurons in spinal cord slices in vitro. To exclude synaptic currents, our external solution contained 20 μM picrotoxin, 50 μM d-APV and 5 μM NBQX to block inhibitory and excitatory synaptic currents, respectively. We first injected −300 pA of current via the recording electrode for 500 ms, which hyperpolarized the resting membrane potential (RMP) and allowed T-channels to recover from inactivation. This protocol served to assess input resistance (Rin) and to evoke rebound action potential (AP) firing. The top line in FIG. 3A depicts the protocol of current injection while bottom traces represent membrane responses. […] We then applied 1 μM TTA-P2 in the external solution for 5 minutes and repeated the same recording protocol (FIG. 3B, bottom trace). […] This finding was consistent in all DH cells challenged with TTA-P2: control: 1.25±0.25 APs; TTA-P2; 0±0 APs (n=4, p<0.05). […] To investigate the possible role of T-channels in spinal nociceptive transmission in vivo, we used intrathecal (i.t.) injections and measured thermal nociceptive responses to noxious heat in adult naïve rats using methods as we described elsewhere (Messinger et al., 2009; Obradovic et al., 2014, PLoS ONE 9(4): e91467. doi:10.1371/journal.pone.0091467). For i.t. injections, rats were briefly anesthetized with 1.5-2% isoflurane and thermal paw withdrawal latencies (PWLs) were measured starting from 30 minutes following injection. […] After 90 minutes, thermal PWLs in both paws returned to near baseline levels and remained stable up to 180 minutes of recording.

The subject of a further series is adult naïve rats. Nature of the series: Thermal paw withdrawal latency after i.t. injection in naive rats. Format: in vivo, rat. As to conditions: 23 μg i.t., both paws, 30 and 60 minutes post injection. The protocol: a. […] We began by studying the role of postsynaptic T-channels in DH neurons using current-clamp recording from unidentified lamina I-II DH neurons in spinal cord slices in vitro. To exclude synaptic currents, our external solution contained 20 μM picrotoxin, 50 μM d-APV and 5 μM NBQX to block inhibitory and excitatory synaptic currents, respectively. We first injected −300 pA of current via the recording electrode for 500 ms, which hyperpolarized the resting membrane potential (RMP) and allowed T-channels to recover from inactivation. This protocol served to assess input resistance (Rin) and to evoke rebound action potential (AP) firing. The top line in FIG. 3A depicts the protocol of current injection while bottom traces represent membrane responses. […] To investigate the possible role of T-channels in spinal nociceptive transmission in vivo, we used intrathecal (i.t.) injections and measured thermal nociceptive responses to noxious heat in adult naïve rats using methods as we described elsewhere (Messinger et al., 2009; Obradovic et al., 2014, PLoS ONE 9(4): e91467. doi:10.1371/journal.pone.0091467). For i.t. injections, rats were briefly anesthetized with 1.5-2% isoflurane and thermal paw withdrawal latencies (PWLs) were measured starting from 30 minutes following injection. […]

Series [5] addresses T2, recombinant human Cav2.3 channels (Homo sapiens, UniProt Q15878).
T2 construct: expressed in transfected cells
The series is described as follows: Recombinant human Cav2.3 currents in HEK 293 cells. In kind it is cell-based. As to conditions: HEK293, read-out: inhibition of recombinant Cav2.3 inward current (of control pre-drug values). The source says: Here, we examined the sensitivity of recombinant human Cav2.3 channels stably expressed in human embryonic kidney (HEK) 293 cells to 3β-OH.

The test system of the next series is rats. Nature of the series: 8-arm radial arm maze (RAM) after exposure at PND7. In kind it is in vivo, rat. Here is the method: (§1) To assess cognitive abilities of our rats we tested their spatial working memory using the 8-arm radial arm maze test (RAM). We began by comparing the overall appearance and daily weight of rats in each group (saline, cyclodextrin, 3β-OH at 10 mg/kg and ketamine at 40 mg/kg) since nutritional status and general state of health are critically important for cognitive development. Based on their general appearance, rats in different groups could not be distinguished from each other. Similarly, there was no difference in daily weight gain among the groups (FIG. 13A). The time points when the animals were treated (PND 7), food restricted (from PND 45), tested on the RAM (from PND 53) and permitted to eat ad libitum (from PND 70) are indicated on the graph. Food restriction, a necessary component of the RAM learning protocol, was limited so that no rat lost more than 10%-15% of its body weight.
To further scrutinize how the acquisition rate of 3β-OH-treated rats compares to ketamine and vehicle groups, we plotted the cumulative percent scores for ketamine-treated animals relative to recorded cumulative percent scores for other groups, using a percent-percent plot (p-p plot) (FIG. 14). […] The learning behavior of 3β-OH-treated rats is similar to that of sham controls resulting in a large gap (shaded area) in learning ability between ketamine-treated (lower blue dotted line) and 3β-OH-treated animals (upper red dotted line). A slight slowing in the acquisition rate observed with 3β-OH-treated rats when compared to vehicle controls (saline—SAL and cyclodextrin—CYCL) during the mid-portion of training (as discussed in FIG. 13C) is highlighted with rectangles.

A short description of series [6]: Daily weight gain after exposure at PND7. As to conditions: 3β-OH at 10 mg/kg, ketamine at 40 mg/kg, treated PND 7. In kind it is in vivo, rat. Here is the method:
as §1

The subject of another series is rat pups (PND7). Nature of the series: Loss of righting reflex (LORR) in PND7 rat pups, i.p.
Series [7] has as its system activated caspase-3 in developing brain. Nature of the series: Activated caspase-3 staining of vulnerable brain regions in PND7 rat pups.
The test system of the next series is GABAA currents. As to conditions: cited from earlier work.
The next series concerns tadpoles. As to conditions: in vivo; cited from earlier work.
Setting [8] is: rat, in vivo, intraperitoneal, 40 mg/kg.

T1 sequence (Q9EQ60 whole entry): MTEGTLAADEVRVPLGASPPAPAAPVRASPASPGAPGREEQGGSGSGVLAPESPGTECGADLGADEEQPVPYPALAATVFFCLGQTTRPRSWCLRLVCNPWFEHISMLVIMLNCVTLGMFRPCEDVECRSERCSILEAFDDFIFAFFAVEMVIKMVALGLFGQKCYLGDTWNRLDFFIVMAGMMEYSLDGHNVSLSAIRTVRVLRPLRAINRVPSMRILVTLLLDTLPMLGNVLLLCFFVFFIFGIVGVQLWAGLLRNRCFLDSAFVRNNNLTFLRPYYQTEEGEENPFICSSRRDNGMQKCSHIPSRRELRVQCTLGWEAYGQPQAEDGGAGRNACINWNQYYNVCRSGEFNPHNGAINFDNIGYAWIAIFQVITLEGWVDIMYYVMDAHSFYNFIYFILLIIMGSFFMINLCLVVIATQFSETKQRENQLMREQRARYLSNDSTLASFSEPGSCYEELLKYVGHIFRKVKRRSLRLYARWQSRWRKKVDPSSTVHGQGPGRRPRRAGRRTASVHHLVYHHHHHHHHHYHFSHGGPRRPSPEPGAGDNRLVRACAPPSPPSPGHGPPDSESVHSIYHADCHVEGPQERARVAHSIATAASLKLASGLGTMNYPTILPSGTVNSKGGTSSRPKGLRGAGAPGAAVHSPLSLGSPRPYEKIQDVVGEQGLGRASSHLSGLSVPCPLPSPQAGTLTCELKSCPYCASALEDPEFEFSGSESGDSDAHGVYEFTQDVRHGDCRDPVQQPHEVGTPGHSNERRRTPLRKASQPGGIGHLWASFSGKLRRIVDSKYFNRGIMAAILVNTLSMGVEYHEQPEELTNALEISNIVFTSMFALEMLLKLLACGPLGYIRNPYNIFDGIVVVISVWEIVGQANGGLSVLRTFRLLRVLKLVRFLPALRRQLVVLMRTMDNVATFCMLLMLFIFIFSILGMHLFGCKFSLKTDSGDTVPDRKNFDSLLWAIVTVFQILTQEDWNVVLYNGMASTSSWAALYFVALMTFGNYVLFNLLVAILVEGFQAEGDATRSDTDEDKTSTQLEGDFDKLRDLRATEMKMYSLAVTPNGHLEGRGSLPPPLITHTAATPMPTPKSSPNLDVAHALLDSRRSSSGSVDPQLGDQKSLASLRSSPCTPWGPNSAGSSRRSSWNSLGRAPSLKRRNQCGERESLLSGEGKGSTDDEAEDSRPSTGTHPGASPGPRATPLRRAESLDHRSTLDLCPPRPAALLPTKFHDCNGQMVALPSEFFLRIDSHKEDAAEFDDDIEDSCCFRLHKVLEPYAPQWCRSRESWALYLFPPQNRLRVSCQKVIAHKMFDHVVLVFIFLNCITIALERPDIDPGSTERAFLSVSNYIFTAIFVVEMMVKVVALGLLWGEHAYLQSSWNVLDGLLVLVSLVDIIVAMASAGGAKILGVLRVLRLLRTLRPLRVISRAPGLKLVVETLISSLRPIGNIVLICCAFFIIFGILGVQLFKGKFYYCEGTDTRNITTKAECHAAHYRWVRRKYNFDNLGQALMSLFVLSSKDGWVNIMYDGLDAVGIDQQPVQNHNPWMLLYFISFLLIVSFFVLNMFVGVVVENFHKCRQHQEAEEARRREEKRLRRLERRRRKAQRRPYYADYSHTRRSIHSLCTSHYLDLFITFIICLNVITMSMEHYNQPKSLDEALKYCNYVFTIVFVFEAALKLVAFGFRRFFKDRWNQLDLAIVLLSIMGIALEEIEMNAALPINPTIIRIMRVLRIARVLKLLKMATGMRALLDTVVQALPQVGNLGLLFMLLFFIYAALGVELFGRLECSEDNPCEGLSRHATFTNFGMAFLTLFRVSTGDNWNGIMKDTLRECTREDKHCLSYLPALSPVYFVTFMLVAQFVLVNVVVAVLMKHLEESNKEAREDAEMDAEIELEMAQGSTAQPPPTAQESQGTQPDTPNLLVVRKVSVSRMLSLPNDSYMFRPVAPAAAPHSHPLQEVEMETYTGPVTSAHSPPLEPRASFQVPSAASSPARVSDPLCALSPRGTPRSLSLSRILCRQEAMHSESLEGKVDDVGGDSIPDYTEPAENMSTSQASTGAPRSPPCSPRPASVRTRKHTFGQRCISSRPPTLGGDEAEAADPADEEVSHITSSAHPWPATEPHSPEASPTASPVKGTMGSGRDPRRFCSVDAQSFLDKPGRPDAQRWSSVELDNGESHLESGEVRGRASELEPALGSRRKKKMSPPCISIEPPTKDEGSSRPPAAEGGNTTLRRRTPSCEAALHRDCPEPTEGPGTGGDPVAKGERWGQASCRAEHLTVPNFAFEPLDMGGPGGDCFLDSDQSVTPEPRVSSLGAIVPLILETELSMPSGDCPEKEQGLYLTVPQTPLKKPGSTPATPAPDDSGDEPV
Chain of recombinant Cav2.3 currents (Q15878 whole entry): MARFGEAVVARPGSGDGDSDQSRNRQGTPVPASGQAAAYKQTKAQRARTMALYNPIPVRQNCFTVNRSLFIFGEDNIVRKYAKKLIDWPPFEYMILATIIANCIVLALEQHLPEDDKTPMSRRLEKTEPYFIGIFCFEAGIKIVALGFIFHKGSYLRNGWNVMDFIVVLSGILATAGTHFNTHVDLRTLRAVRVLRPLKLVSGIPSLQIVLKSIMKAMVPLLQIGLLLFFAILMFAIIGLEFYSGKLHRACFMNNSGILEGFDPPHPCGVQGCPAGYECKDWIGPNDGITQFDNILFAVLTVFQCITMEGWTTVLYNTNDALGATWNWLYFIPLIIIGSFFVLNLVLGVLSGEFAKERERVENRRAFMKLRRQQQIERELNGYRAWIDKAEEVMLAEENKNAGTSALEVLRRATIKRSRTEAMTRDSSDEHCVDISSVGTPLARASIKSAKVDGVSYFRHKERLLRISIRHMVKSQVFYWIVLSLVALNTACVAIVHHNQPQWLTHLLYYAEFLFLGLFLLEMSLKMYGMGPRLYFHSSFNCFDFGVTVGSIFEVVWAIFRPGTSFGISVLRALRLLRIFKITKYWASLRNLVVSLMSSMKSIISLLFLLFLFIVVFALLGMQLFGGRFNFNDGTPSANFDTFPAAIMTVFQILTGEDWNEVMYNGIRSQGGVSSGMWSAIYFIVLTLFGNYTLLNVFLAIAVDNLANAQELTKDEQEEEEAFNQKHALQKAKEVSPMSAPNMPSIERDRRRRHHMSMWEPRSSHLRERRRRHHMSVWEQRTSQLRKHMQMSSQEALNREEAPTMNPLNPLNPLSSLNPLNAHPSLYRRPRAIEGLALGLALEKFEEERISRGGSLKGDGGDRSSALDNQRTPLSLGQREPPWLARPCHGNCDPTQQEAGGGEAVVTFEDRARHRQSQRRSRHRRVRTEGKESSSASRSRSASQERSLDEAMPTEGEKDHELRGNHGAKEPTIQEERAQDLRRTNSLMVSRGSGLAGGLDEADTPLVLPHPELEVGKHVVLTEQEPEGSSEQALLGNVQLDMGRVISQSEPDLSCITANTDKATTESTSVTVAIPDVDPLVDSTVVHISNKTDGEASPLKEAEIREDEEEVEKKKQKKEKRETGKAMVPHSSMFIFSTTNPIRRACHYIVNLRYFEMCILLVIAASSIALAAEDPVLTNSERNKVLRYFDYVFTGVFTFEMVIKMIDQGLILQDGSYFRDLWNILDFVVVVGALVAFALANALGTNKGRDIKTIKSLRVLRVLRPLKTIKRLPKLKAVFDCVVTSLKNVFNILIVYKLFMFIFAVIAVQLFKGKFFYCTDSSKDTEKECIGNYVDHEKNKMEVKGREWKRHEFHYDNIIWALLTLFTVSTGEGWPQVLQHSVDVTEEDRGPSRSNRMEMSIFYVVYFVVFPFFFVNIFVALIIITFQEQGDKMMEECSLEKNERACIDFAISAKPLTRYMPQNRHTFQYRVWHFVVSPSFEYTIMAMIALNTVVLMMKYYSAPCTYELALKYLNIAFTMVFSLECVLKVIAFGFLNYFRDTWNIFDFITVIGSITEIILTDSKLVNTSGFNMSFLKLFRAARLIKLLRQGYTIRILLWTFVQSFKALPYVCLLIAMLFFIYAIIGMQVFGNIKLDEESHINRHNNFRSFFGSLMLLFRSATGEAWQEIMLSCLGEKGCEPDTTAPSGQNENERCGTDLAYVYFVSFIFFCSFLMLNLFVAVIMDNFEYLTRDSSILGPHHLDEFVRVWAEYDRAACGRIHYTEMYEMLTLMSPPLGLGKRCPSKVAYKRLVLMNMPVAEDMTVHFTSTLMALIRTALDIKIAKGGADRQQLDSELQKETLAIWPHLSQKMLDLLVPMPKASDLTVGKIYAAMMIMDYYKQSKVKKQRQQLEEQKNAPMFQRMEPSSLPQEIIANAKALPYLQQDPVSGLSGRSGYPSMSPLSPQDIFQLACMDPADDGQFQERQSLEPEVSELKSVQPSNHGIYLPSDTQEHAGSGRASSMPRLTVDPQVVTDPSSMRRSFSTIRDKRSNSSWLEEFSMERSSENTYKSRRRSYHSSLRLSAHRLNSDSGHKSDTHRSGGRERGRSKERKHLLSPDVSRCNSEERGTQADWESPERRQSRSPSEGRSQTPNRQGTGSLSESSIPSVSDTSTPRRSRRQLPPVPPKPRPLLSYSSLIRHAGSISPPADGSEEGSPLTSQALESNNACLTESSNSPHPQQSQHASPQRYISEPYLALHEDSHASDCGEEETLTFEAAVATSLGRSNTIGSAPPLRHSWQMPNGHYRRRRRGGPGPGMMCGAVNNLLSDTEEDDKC

`C[C@]12CC[C@H]3[C@@H](CC[C@H]4C[C@@H](C#N)CC[C@@H]43)[C@@H]1CC[C@@H]2O` [ECN, (3β,5α,17β)-17-hydroxyestrane-3-carbonitrile]: in [1] (DRG neurons), the “maximal block of T-current” value is 40%. Moreover, the concentration for half-maximal inhibition (IC50) (commonly the concentration at which inhibition is half-maximal) is 0.3 µM in [1] (read-out: IC50, block of T-channels in rat DRG neurons, voltage-dependent block) and 16 µM in [2]. Besides, the “effect on voltage-gated Na+, K+, N- and L-type HVA Ca2+ channels, glutamate and GABA-gated channels” value in series [3] is reported as “very little effect”.
With `CC1(C)C[C@@H](CN2CCC(F)(CNC(=O)c3cc(Cl)cc(Cl)c3)CC2)CCO1` [TTA-P2], the “effect on ADP and rebound AP” value in [4] is reported as “completely inhibited”. Moreover, the rebound action potentials in series [4] (5 minutes, control 1.25±0.25) was 0±0 APs. Also, in series [4] (control 194±37), the “input resistance (Rin)” value is listed as 191±29 MΩ. In addition, the “resting membrane potential (RMP)” value in series [4] (control −57±2) was −58±3 mV. The “increase of thermal PWLs from baseline” value in the series on adult naïve rats was “up to 50%”.
`FC(F)OC(Cl)C(F)(F)F` (stereo not shown) [isoflurane, reference compound]: the inhibition (in general, the relative decrease from the control value, in per cent) at 300 µM in series [5] is 69 ± 4%.
Turning to `CNC1(c2ccccc2Cl)CCCCC1=O` (stereo not shown) [ketamine, reference compound], the “days required to reach learning criterion in RAM” value with rats (3β-OH at 10 mg/kg, ketamine at 40 mg/kg at PND 7, tested from PND 53) was “significantly impaired”. Also, the “rats reaching criterion in the allotted time” value with rats (p-p plot) is reported as “about 85%”. In the series on rats (setting [8]), the “rats that did not learn the task during the allotted time” value is reported as “about 15%” and the “rats that had reached criterion at the same point of training (p-p plot)” value is 28%. Moreover, in series [6], the “daily weight gain among the groups” value is reported as “no difference”. Also, the “calculated EC50 (duration of LORR)” value in the series with rat pups (PND7) is 62.9 ± 3.9 mg/kg. In series [7] (20 mg/kg i.p. every hour, six doses, all brain regions), the “caspase-3 activation compared with 3β-OH at equipotent dose” value is recorded as “significantly higher”. The “increase in caspase-3 activation, higher dose compared with twice lower dose” value in series [7] (40 mg/kg vs 20 mg/kg i.p., 6 doses hourly) is listed as 3-6 fold. Moreover, the “caspase-3 activation at higher dose compared with vehicle” value in series [7] (3β-OH 10 mg/kg or ketamine 40 mg/kg i.p., 6 doses hourly, 3β-OH: except subiculum) is “significant increase”.
As to “(3α,5α)-3-hydroxy-13,24-cyclo-18,21-dinorchol-22-en-24-ol [CDNC24]”, the “effect on T-currents in DRG cells” value in [1] is recorded as “no effect”. The “effect on GABAA currents” value with GABAA currents is recorded as “potent potentiator”. The anesthetic in tadpoles result in the series on tadpoles was “anesthetic”.
